Reference: patent US9662390B2, “Use of opioid antagonists to attenuate endothelial cell proliferation and migration” (THE UNIVERSITY OF CHICAGO, priority 2005, dated 2017)
Like-named read-outs stand apart in the source and are kept apart here.

Tested on: Human Microvascular Endothelial Cells (HMVEC)
Type: cell-based
Settings: for effect on DAMGO-induced endothelial cell migration: DAMGO 1 μM; for effect on morphine-induced endothelial cell migration: morphine constant at 0.1 μM, antagonist 0.001 to 10.0 μM; for effect on endothelial cell migration: substance alone, 0.001 to 10.0 μM, 4 hours, cells migrated per 10 high power fields

Row | Compound | effect on DAMGO-induced endothelial cell migration | effect on DAMGO-induced endothelial cell migration (listed as methylnaltrexone) | MNTX concentration that significantly blocks morphine-induced migration (morphine 10^−7M) | effect on morphine-induced endothelial cell migration | effect on morphine-induced endothelial cell migration (listed as methylnaltrexone) | effect on endothelial cell migration
1 | C[N+]1(CC2CC2)CCC23c4c5ccc(O)c4OC2C(=O)CCC3(O)C1C5 (stereo not shown) [MNTX, N-methylnaltrexone] | blocked | decreased migration in a concentration-dependent manner | 10^−7 M | attenuated | decreased migration in a concentration-dependent manner | no effect on endothelial cell migration
2 | CN1CC[C@]23c4c5ccc(O[C@@H]6O[C@H](C(=O)O)[C@@H](O)[C@H](O)[C@H]6O)c4O[C@H]2[C@@H](O)C=C[C@H]3[C@H]1C5 [M3G, morphine-3-glucuronide] | – | – | – | – | – | exerts no angiogenic activity
